# Out of some 200,000 compounds screened, about 4,500 (2.2%) were called active. Inconclusive means that the source gave no clear call. Such entries were picked first, then a sample of the others. Calls come from the whole dose curve; as a rule, active = well fitted inhibition curve with a large enough effect; inconclusive = small, poorly fitted or top-dose-only effect, or effect the other way; inactive = flat fitted curve, though single readings scatter. A potency beside an inconclusive call is a rough fit, not a confirmed value.
# Molecular target: Cruzipain (Trypanosoma cruzi) (UniProt P25779)
# Sequence of UniProt P25779 (P25779 whole entry, looked up): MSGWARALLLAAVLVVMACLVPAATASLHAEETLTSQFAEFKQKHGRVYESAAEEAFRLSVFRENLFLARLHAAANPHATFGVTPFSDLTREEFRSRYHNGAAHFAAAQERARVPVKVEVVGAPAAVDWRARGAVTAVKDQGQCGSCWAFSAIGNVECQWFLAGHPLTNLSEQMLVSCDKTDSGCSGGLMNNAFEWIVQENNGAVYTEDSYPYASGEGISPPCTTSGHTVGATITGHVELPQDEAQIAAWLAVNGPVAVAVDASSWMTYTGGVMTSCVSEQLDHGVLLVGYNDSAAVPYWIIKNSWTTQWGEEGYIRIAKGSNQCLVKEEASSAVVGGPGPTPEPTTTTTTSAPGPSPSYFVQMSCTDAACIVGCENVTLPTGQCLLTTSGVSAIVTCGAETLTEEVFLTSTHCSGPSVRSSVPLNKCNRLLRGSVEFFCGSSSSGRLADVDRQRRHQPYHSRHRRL
# Assay: qHTS Assay for Promiscuous and Specific Inhibitors of Cruzain (without detergent); note: nearly all actives have a fitted effect of over 40% in size;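 for max response, negative = inhibition: plate controls were enzyme without inhibitor for no effect and buffer without enzyme for full effect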
# Details: purified cruzain, Z-FR-AMC fluorescence, no detergent
# In short: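 Detergent-free condition (0.00005% Triton X-100) in acetate buffer pH 5.5 with DTT. 1.5 nM enzyme and compound were pre-mixed 15 min, then 2 uM Z-FR-AMC substrate added; reaction progress from fluorescence change between first and third reads (60 s).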
# Potency is the fitted concentration of half-maximal effect; tags give direction and shape of the fitted curve.
SMILES,Potency,"max response, negative = inhibition"
Cc1cc(C(=O)OCC(=O)Nc2nc(-c3ccccc3)cs2)c(C)o1,"inconclusive: 39.8 µM [inhibitor, single point]",–
CCOc1ccc(C2C(C(=O)Nc3ccc(C)cc3C)=C(C)Nc3c(C(=O)Nc4ccc(C)cc4)cnn32)cc1OC (stereo unspecified),"inconclusive: 6.31 µM [activator, single point]",–
COc1ccc(CCNC(=O)C(C)n2nc(C)c3sc4ccccc4c3c2=O)cc1OC (stereo unspecified),active: 31.6 µM,–
COc1ccc(-c2nc(C)c(CCNC(=O)c3cccc(C)c3)s2)cc1OC,"inconclusive: 39.8 µM [activator, single point]",–
C=Cc1ccc(Cn2c(C(=O)O)c(CNCc3cc(OC)ccc3OC)c3ccc(C)cc32)cc1,"inconclusive: 25.1 µM [activator, single point]",–
COCCNC(=O)C(=O)Nc1ccc2nc3n(c(=O)c2c1)CCCCC3,–,inactive: 3.19%
CCOC(=O)c1cnc2c(N=Nc3cccc(Cl)c3)c(N)nn2c1N,"inconclusive: 31.6 µM [inhibitor, single point]",–
CC(C(=O)NCC1CCCCC1)N1CCN(S(=O)(=O)/C=C/c2ccccc2)CC1 (stereo unspecified),"inconclusive: 25.1 µM [activator, single point]",–
Cc1cc(C(=O)N/N=C/c2cc(Cl)cc([N+](=O)[O-])c2O)c2ccccc2n1,"inconclusive: 39.8 µM [activator, single point]",–
CCOc1ccc(-c2csc(NC(=O)c3ccc(S(=O)(=O)N4CCc5ccccc5C4)cc3)n2)cc1,active: 3.98 µM,–
Cc1ccc2c(c1)N(CC(=O)NCc1cccc(Cl)c1)C(=O)c1cccnc1O2,–,inactive: 6.77%
CC(Oc1ccc(Cl)cc1Cl)C(=O)Nc1ccc2oc(-c3ccncc3)nc2c1 (stereo unspecified),"inconclusive: 31.6 µM [activator, single point]",–
Cc1c(C(=O)N2CCOCC2)oc2c1-c1nn(CC(=O)NCc3ccccc3)cc1CC2,–,inactive: -6.64%
CSc1ccc(Nc2nn(-c3ccc(OC(F)(F)F)cc3)nc2C(C)=O)cc1,"inconclusive: 20 µM [inhibitor, single point]",–
Cc1ccc(CN2C(=O)C3(SCC(=O)N3c3ccc(C)c(C)c3)c3ccccc32)cc1 (stereo unspecified),"inconclusive: 25.1 µM [inhibitor, single point]",–
CCOC(=O)c1c(C)nc(SCC(N)=O)c(C#N)c1-c1ccccc1,–,inactive: -1.59%
O=C(c1ccccc1)N1CCC(c2nc(-c3ccc(S(=O)(=O)NCC4CCCO4)cc3)no2)CC1 (stereo unspecified),"inconclusive: 20 µM [activator, single point]",–
Cc1cccc(N2CCN(C(=O)Cn3nc(C)c4sc5ccccc5c4c3=O)CC2C)c1 (stereo unspecified),"inconclusive: 0.0063 µM [activator, full curve, poor fit]",–
CC(=O)c1ccc(NC(=O)CN2C(=O)/C(=C/C=C/c3ccccc3)SC2=S)cc1,active: 10 µM,–
COc1ccc(NC(=O)CCS(=O)(=O)c2cc(Br)cc3c2N(C(C)=O)CC3)c(OC)c1,–,inactive: -2.14%
CC(C)CC(=O)Nc1ccc(-c2nc3ccccc3c(=O)[nH]2)cc1,"inconclusive: 31.6 µM [inhibitor, single point]",–
CN(C(=O)CSc1nc2ccc(NC(=O)c3ccc(F)cc3)cc2s1)c1ccccc1,–,inactive: -3.98%

SMILES,Potency,"max response, negative = inhibition"
CCOc1ccccc1NC(=O)c1ccc2oc(=O)c(S(=O)(=O)c3ccc(F)cc3)cc2c1,–,inactive: -5.3%
O=c1cc(-c2cccc(O)c2O)oc2ccccc12,–,inactive: 3.89%
OCc1ccc(-c2ccc(-c3ccc(CO)s3)o2)s1,"inconclusive: 39.8 µM [inhibitor, single point]",–
Cc1ccc(C(=O)Nc2ncc(Cc3ccccc3)s2)o1,–,inactive: -6.01%
Cc1c(C(=O)N(C)C)sc2c1c(=O)n(-c1ccc(Cl)c(Cl)c1)c(=O)n2Cc1ccc(F)cc1,–,inactive: 11.6%
O=C(COc1ncnc2scc(-c3ccccc3)c12)NC1CCCc2ccccc21 (stereo unspecified),"inconclusive: 39.8 µM [inhibitor, single point]",–
Cc1cc(=O)oc2cc(OCC(=O)NCCc3nc4ccccc4[nH]3)ccc12,active: 2.51 µM,–
COc1ccc(N(CCCN2C(=O)c3cccc4cccc(c34)C2=O)C(=O)c2cccs2)cc1,"inconclusive: 39.8 µM [inhibitor, single point]",–
COc1ccccc1C1C(C(N)=O)=C(C)Nc2nc(SCc3ccccc3F)nn21 (stereo unspecified),"inconclusive: 39.8 µM [inhibitor, single point]",–
CCCC(=O)NC1CC(=O)N(c2ccc3c(c2)OCCO3)C1 (stereo unspecified),–,inactive: 14.6%
CCc1ccc(NC(=O)CN2C(=O)C(=O)c3ccccc32)cc1,–,inactive: 12.2%
CCOC(=O)c1sc(N)c(C#N)c1CSc1nc2ccc(OCC)cc2[nH]1,"inconclusive: 25.1 µM [activator, single point]",–
CSc1cccc(NC(=O)C2CCCN(C(=O)c3cnn(-c4ccc(F)cc4)c3-n3cccc3)C2)c1 (stereo unspecified),"inconclusive: 39.8 µM [activator, single point]",–
Cc1ccc(S(=O)(=O)N2CCC(=O)N(CCOCc3cccc(C(F)(F)F)c3)CC2)cc1,"inconclusive: 31.6 µM [activator, single point]",–
N#C/C(=C\c1cccc(F)c1)c1nc(-c2cc3c(ccc4ccccc43)oc2=O)cs1,"inconclusive: 7.94 µM [inhibitor, partial curve]",–
Cc1ccc(/C=N/Nc2nc(Cl)c(Cl)cc2Cl)s1,"inconclusive: 39.8 µM [inhibitor, single point]",–
CCOC(=O)c1c(NC(=O)CSc2nnnn2C)sc(CC)c1C,"inconclusive: 31.6 µM [activator, single point]",–
CCCN(CCC)CCCNC(=O)C1CCN(c2nc3ccc(CC)cc3s2)CC1,–,inactive: -0.701%
CSc1ccc(/C=N/NC(=O)COc2ccc(Br)cc2Cl)cc1,active: 25.1 µM,–
CCOc1ccccc1NS(=O)(=O)c1ccc2[nH]c3c(c2c1)CCCCC3,"inconclusive: 31.6 µM [inhibitor, single point]",–
CC(C)OCCCNc1nc2c(c(=O)n(Cc3ccccc3F)c(=O)n2C)n1C,"inconclusive: 39.8 µM [activator, single point]",–
CCCNC(=O)c1ccccc1NC(=O)c1nsc2ccccc12,–,inactive: 7.73%

SMILES,Potency,"max response, negative = inhibition"
COc1cccc(NC(=O)CSc2ncc3c(n2)-c2ccc(Cl)cc2N(C)S3(=O)=O)c1,–,inactive: -0.0577%
COc1ccc(-c2cc(C(=O)N3CCN(c4ccccc4)CC3)c3ccccc3n2)cc1OC,"inconclusive: 31.6 µM [activator, single point]",–
O=S(=O)(c1ccc(Oc2ccc3oc4ccccc4c3c2)nc1)N1CCCC1,"inconclusive: 39.8 µM [inhibitor, single point]",–
COc1ccc(/C=C2/C(=O)N(Cc3ccco3)C(=O)N(C(C)C)C2=O)cc1,"inconclusive: 31.6 µM [activator, single point]",–
COc1ccc(C2=NN(C(C#N)c3ccc(OC)cc3)C(c3ccccc3)C2)cc1 (stereo unspecified),"inconclusive: 31.6 µM [inhibitor, single point]",–
CCOC(=O)Cn1c(=O)cc(C(F)(F)C(F)(F)F)c2c(C)nn(CC)c21,"inconclusive: 39.8 µM [activator, single point]",–
CC(C)CCNC(=O)C(NS(=O)(=O)c1ccc2c(c1)c(=O)n(C)c(=O)n2C)c1ccccc1 (stereo unspecified),"inconclusive: 39.8 µM [inhibitor, single point]",–
COc1ccc(C(=O)N2CCC3(CCN(Cc4cc(C(F)(F)F)cc(C(F)(F)F)c4)CC3)CC2)cc1,–,inactive: 6.36%
COCc1cc(C)nc(NCCc2ccccc2)c1C#N,"inconclusive: 20 µM [activator, partial curve]",–
CCc1ccc(OCC(=O)Nc2cc(-c3ccc(C)cc3)no2)cc1,"inconclusive: 31.6 µM [inhibitor, single point]",–
Cc1ccccc1NC(=O)CSc1nc(-c2ccccc2)cn1-c1ccccc1F,–,inactive: 14.8%
Cc1ccccc1OCc1nc2c3cnn(-c4ccccc4F)c3ncn2n1,–,inactive: -7.52%
Cc1ccc(Cl)cc1Nc1nc(-c2sc(NC(=O)c3ccccc3)nc2C)cs1,active: 6.31 µM,–
CCOC(=O)c1c(NC(=O)c2nn(CC)cc2Br)sc(C)c1C,"inconclusive: 39.8 µM [activator, single point]",–
COc1ccc2nc(NC(=O)CCc3nc(-c4ccccc4F)no3)sc2c1,active: 7.94 µM,–
O=C(Nc1cccc(Cl)c1Cl)c1ccc(-c2ccccc2)cc1,"inconclusive: 31.6 µM [inhibitor, single point]",–
COc1ccccc1Cn1ccn(Cc2ccc(C)cc2)c(=O)c1=O,"inconclusive: 39.8 µM [activator, single point]",–
O=C(O)CCC(=O)NCc1cn(-c2ccccc2)nc1-c1cccc(Br)c1,"inconclusive: 31.6 µM [activator, single point]",–
C=CCOC(=O)C1C(=O)CC(C)(O)C(C(=O)OCC=C)C1c1ccc(OCC)cc1 (stereo unspecified),"inconclusive: 31.6 µM [activator, single point]",–
CCOC(=O)N1CCC(N(CCOC)C(=O)Nc2ccc(CC)cc2)CC1,"inconclusive: 25.1 µM [activator, single point]",–
Clc1ccc2c(c1)C=Nc1c(NCc3ccccc3)ncnc1O2,"inconclusive: 31.6 µM [inhibitor, single point]",–
CCCCC/C=C\C[C@@H](O)/C=C/C=C\CCC(=O)O,–,inactive: -1.27%

# — PubChem BioAssay AID1476 (National Center for Advancing Translational Sciences (NCATS), 2009)
